PubChem BioAssay AID1479 (National Center for Advancing Translational Sciences (NCATS), 2009)
Out of some 280,000 compounds screened, about 820 (0.29%) were called active. Inconclusive means that the source gave no clear call. Such entries were picked first, then a sample of the others. Calls come from the whole dose curve; as a rule, active = well fitted curve in either direction with a large enough effect; inconclusive = small, poorly fitted or top-dose-only effect; inactive = flat fitted curve, though single readings scatter. No potency is given beside an inconclusive call; the fits are too rough.

Assay: Total Fluorescence Counterscreen for Inhibitors of the Interaction of Thyroid Hormone Receptor and Steroid Receptor Coregulator 2
Details: TRb/SRC2 Texas Red total fluorescence interference; series mostly up to 106 µM
Method in brief: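 Human TRb ligand-binding domain at 0.6 uM with 20 nM Texas Red SRC2 peptide in Tris buffer containing 1 uM T3 and 5% DMSO, incubated with compound 5 h at ambient temperature. Total fluorescence (555/632 nm) calculated as parallel + 2 × perpendicular.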
Potency is the fitted concentration of half-maximal effect; tags give direction and shape of the fitted curve or compound fluorescence and quenching.

| Structure (SMILES) | Potency |
| --- | --- |
| CC1N(C)c2cc(NC(=O)c3ccco3)ccc2C1(C)C (configuration not stated) | active: 44.7 µM [fluorescent] |
| Cc1ccc(OCC(=O)NCC(=O)OCc2cc(=O)n3nc(CC(C)C)sc3n2)cc1 | inactive |
| O=C(CSc1nc(=O)[nH]c2c1CCC2)Nc1cc(C(F)(F)F)ccc1Cl | inconclusive [rising, single point] |
| Cc1cccc(C(=O)Nc2ccc3nc(SCC(=O)N4CCCC4)sc3c2)c1 | inconclusive [falling, partial curve, poor fit] |
| Cc1ccc(-c2nnc(SCC(=O)NCc3ccccc3)o2)cc1 | inconclusive [falling, partial curve, poor fit] |
| O=c1c2c(ncn2C2CCCC2)n(Cc2ccccc2)c(=O)n1CCOc1ccccc1 | inconclusive [falling, full curve, poor fit] |
| COc1ccc(N=C2NC(=O)S/C2=C\c2ccc(N(C)C)cc2)cc1 | active: 50.1 µM [fluorescent] |
| COc1ccccc1CNc1nc2ccccc2c2nc(-c3cccc(C)c3)nn12 | inconclusive [quencher, full curve] |
| COc1ccccc1NS(=O)(=O)c1cc(NC(=S)Nc2cc(C)cc(C)c2)ccc1Cl | inconclusive |
| CCc1ccc2oc(-c3cccc(NC(=O)COc4ccccc4Cl)c3)nc2c1 | inconclusive [falling, full curve, poor fit] |
| CCOC(=O)c1ccc(NC(=O)CSc2nc(-c3ccc(F)cc3)cc(C(F)(F)F)c2C#N)cc1 | inconclusive [falling, full curve, poor fit] |
| COc1cc(OC)c(NC(=O)CC(C)S(=O)(=O)c2ccc3c(c2)NC(=O)CO3)cc1Cl (configuration not stated) | inconclusive [quencher, full curve] |
| CCOC(=O)O[C@@H](C)OC(=O)[C@@H]1N2C(=O)[C@@H](NC(=O)[C@@H](N)c3ccccc3)[C@H]2SC1(C)C | inactive |
| CC(C)c1ccc(NC(=O)Cc2ccc(NC(=O)N3CCCCc4ccccc43)cc2)cc1 | inconclusive [quencher, full curve] |
| COCc1cc(C)nc2sc(C(=O)Nc3ccc(C(C)=O)cc3)c(N)c12 | inconclusive [falling, partial curve, poor fit] |
| CCC(C)Nc1ccc(NC(C)CC)cc1 (configuration not stated) | inconclusive [fluorescent, partial curve] |
| NC(=O)C1CCN(C(=O)c2cc3n(n2)C(C(F)(F)F)CC(c2ccco2)N3)CC1 (configuration not stated) | inconclusive [fluorescent, partial curve] |
| O=C(NCc1ccco1)c1ccc2ccccc2c1 | inactive |
| Cc1ccc(/C=C/C(=O)N2CCC(c3nc4ccccc4o3)CC2)cc1 | inconclusive [quencher, partial curve] |
| CC(C)Cc1ccc(S(=O)(=O)NCc2nc3cccnc3n2Cc2ccccc2)cc1 | inconclusive [falling, full curve, poor fit] |
| COc1ccc(N2C(=O)CSC23C(=O)N(CC(=O)Nc2ccccc2F)c2ccccc23)cc1 (configuration not stated) | inconclusive [falling, full curve, poor fit] |

| Structure (SMILES) | Potency |
| --- | --- |
| CCN(CC)c1ccc(C=C2C(=O)OC(C)(C(C)(C)C)OC2=O)cc1 (configuration not stated) | inactive |
| Cc1nn(-c2ccccc2)c(N)c1C(O)(C(F)(F)F)C(F)(F)F | inactive |
| COc1ccc(-n2ccnc2SCC(=O)Nc2cccc(OC)c2)cc1 | inconclusive [quencher, full curve] |
| CCC(=O)Oc1ccc(C2Nc3ccccc3-c3nnc(SC)nc3O2)cc1 (configuration not stated) | inconclusive [falling, full curve, poor fit] |
| Cc1ccc2nc(-c3cc(NC(=O)COc4ccc(C)c(C)c4)ccc3Cl)oc2c1 | inconclusive [falling, full curve, poor fit] |
| Cc1ccc(NC(=O)N2CCC(CN3CCCC3)CC2)c(C)c1 | inconclusive [quencher, full curve] |
| CCOC(=O)C1=C(CS(=O)(=O)c2ccc(OC)c(Cl)c2)NC(=O)NC1c1cccc(OC)c1 (configuration not stated) | inactive |
| CC1(C)CC(NC(=O)c2ccccc2C(=O)NC2CC(C)(C)NC(C)(C)C2)CC(C)(C)N1 | inactive |
| Cc1cccc(NC(=O)CSc2nnc(-c3ccco3)c(-c3ccco3)n2)c1C | inconclusive [quencher, partial curve] |
| COC(=O)c1ccccc1NC(=O)Cn1c(=O)cc(C)c2c(C)nn(C)c21 | inconclusive |
| Cc1ccc(OCCSc2nc(C)c(Cc3ccccc3)c(=O)[nH]2)cc1 | inconclusive [falling, full curve, poor fit] |
| C/C(=N\Nc1ccc([N+](=O)[O-])cc1)c1ccc(C#N)cc1 | inconclusive [rising, single point] |
| COc1cccc(CNS(=O)(=O)c2ccc3c(c2)C(C(C)C)C(=O)N3)c1 (configuration not stated) | inconclusive [falling, partial curve, poor fit] |
| CCOc1ccc(CNC(=O)CS(=O)(=O)c2cccc3nsnc23)cc1 | inconclusive [falling, full curve, poor fit] |
| CC(=O)c1cc(-c2ccccc2)n(CC(=O)Nc2ccc(C)c(C)c2)c1C | inactive |
| Cc1cccc(CCNC(=O)c2cc3c(s2)-c2c(C)cccc2OC3)c1 | inconclusive [falling, full curve, poor fit] |
| CC(=O)O[C@]1(C(C)=O)CC[C@H]2[C@@H]3C=C(Cl)C4=CC(=O)CC[C@]4(C)[C@H]3CC[C@@]21C | inconclusive [falling, full curve, poor fit] |
| CCCNC(=O)NS(=O)(=O)c1ccc(Cl)cc1 | inconclusive [quencher, full curve] |
| CCOc1ccc(C(=O)NCCc2csc(-c3cccc(F)c3)n2)cc1OCC | inconclusive [falling, partial curve, poor fit] |
| COCCCNC(=O)c1ccc2c3c(onc13)-c1ccccc1C2=O | inactive |
| COCCCNC(=O)c1ccc2c(c1)N(Cc1ccccc1F)C(=O)c1ccccc1S2=O (configuration not stated) | inconclusive [falling, full curve, poor fit] |

| Structure (SMILES) | Potency |
| --- | --- |
| Cc1ccc(C(=O)NCCCNc2ccc(C(F)(F)F)cc2[N+](=O)[O-])cc1 | inconclusive [quencher, full curve] |
| Nc1nc2c(s1)CCc1c-2cnn1-c1ccccc1 | inconclusive [falling, full curve, poor fit] |
| O=C1NC(=Nc2ccccc2)S/C1=C\c1cccs1 | inactive |
| COc1cccc2c(C)cc3nnc(SCC(=O)Nc4ccc(C)cc4)n3c12 | inconclusive [falling, partial curve, poor fit] |
| COCCNC(=O)CN1C(=O)c2cccnc2Sc2ccccc21 | inconclusive [quencher, partial curve] |
| Cn1c(=O)n(Cc2ccccc2)c(=O)c2c1nc1n2CCN1c1ccccc1 | inconclusive [falling, full curve, poor fit] |
| NCCCCCC(=O)O | inconclusive [quencher, full curve] |
| COc1ccc(NC(=O)c2nnn(Cc3nc(-c4cc(OC)c(OC)c(OC)c4)oc3C)c2C)cc1Cl | active: 0.0089 µM [quencher] |
| CC[C@H](C)[C@H](NC(=O)[C@H](CCC(=O)O)NC(=O)CNC(=O)[C@@H](NC(=O)[C@H](CCC(=O)O)NC(=O)[C@H](CCC(=O)O)NC(=O)[C@H](CC(C)C)NC(=O)CNC(=O)[C@@H]1CCCN1C(=O)[C@H](CCC(=O)O)NC(=O)[C@@H](N)[C@@H](C)O)C(C)C)C(=O)N[C@@H](CCC(=O)O)C(=O)N[C@@H](CCC(N)=O)C(=O)N[C@@H](CCCCN)C(=O)N[C@@H](CCC(N)=O)C(=O)N[C@@H](CC(C)C)C(=O)N[C@@H](CCC(N)=O)C(=O)O | inconclusive [falling, full curve, poor fit] |
| O=C(Cn1c(=O)oc2cc(S(=O)(=O)NCc3ccccc3)ccc21)Nc1cccc(F)c1 | inconclusive [quencher, full curve] |
| CCc1cc(SC#N)cc(CC)c1NC(=O)CCl | inactive |
| CCN1C(=O)[C@H]2[C@H]3[C@H](O)[C@H](O)C/C(=N/O[C@@H](C)c4cn([C@H]5COC[C@H]5O)nn4)[C@@H]3CC[C@@H]2C1=O | inconclusive [falling, partial curve, poor fit] |
| CCOC(=O)c1c(-c2ccc(C)cc2)csc1NC(=O)c1cc(=O)c2cc(C)ccc2o1 | inconclusive [falling, full curve, poor fit] |
| N#C/C(=C\c1ccc(O)c(O)c1)C(=O)NCCCCc1ccccc1 | inactive |
| N=c1n(CC(=O)c2ccc([N+](=O)[O-])cc2)c2ccccc2n1Cc1ccccc1Cl | inactive |
| Cc1ccccc1N1CC(=O)N(c2ccccc2C)CC1=O | inactive |
| COc1cccc(C2CC(C(F)(F)F)n3ncc(C(=O)NCc4ccco4)c3N2)c1 (configuration not stated) | inactive |
| CCN(c1ccccc1)S(=O)(=O)c1nnc(NC(=O)COc2ccc(OC)cc2)s1 | inconclusive [falling, full curve, poor fit] |
| CC1=NN(c2ccc(C(=O)O)cc2)C(=O)/C1=C\c1ccc(OC(=O)c2cccs2)cc1 | inactive |
| COC(=O)CN1C(=O)C2(C(C#N)=C(N)Oc3c2c(C)nn3-c2ccccc2)c2ccccc21 (configuration not stated) | inactive |
